# Laboratory results as given in PubChem BioAssay AID485341 (National Center for Advancing Translational Sciences (NCATS), 2010).
# Among all 330,000 compounds or so, about 1,700 (0.52%) were called active. Inconclusive results, whose numbers are uncertain, are shown with a selection of clear calls. The call rests on the fitted dose curve; in most records, active means well fitted inhibition curve with a large enough effect; inconclusive means small, poorly fitted or top-dose-only effect; inactive means no such curve, though single readings can be large or run the other way. Potencies of inconclusive entries are doubtful fits and often do not repeat.
# Biological target: Beta-lactamase (Escherichia coli (strain K12)) (UniProt P00811)
# UniProt P00811, sequence (P00811 whole entry, looked up): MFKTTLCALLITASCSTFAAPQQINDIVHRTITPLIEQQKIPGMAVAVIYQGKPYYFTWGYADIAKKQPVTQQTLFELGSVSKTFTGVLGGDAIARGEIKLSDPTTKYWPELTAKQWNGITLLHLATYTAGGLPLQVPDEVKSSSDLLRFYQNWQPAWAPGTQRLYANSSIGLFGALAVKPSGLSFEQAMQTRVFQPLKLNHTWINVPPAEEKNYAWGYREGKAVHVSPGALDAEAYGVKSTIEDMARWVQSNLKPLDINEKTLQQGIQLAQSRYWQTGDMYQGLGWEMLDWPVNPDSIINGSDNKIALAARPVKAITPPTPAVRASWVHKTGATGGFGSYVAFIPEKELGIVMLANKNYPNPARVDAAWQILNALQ
# Test: qHTS Inhibitors of AmpC Beta-Lactamase (assay without detergent); further: nearly all actives have a fitted effect of over 20% in size;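 on activity change, negative = inhibition: plate controls were no compound for no effect and no enzyme for full effect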
# Conditions: AmpC nitrocefin hydrolysis, absorbance 480 nm, 0.0001% Triton; activity change, negative = inhibition: at 57.1 µM (top of the series) unless noted
# Method in brief: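 AmpC (5.3 nM in the dispensed reagent) in 20 mM phosphate pH 7.0 with 0.01% (detergent screen) or 0.0001% Triton X-100 was preincubated with compounds for 15 min at room temperature. Nitrocefin was then added from an 800 uM solution, and hydrolysis was followed at 480 nm.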
# Potency means the concentration at half of the fitted maximal effect; tags describe the fitted curve by direction and shape.
SMILES,Potency,"activity change, negative = inhibition"
CC(C)(C)OC(=O)N[C@@H](Cc1ccccc1)c1nnc(S(=O)(=O)Cc2ccccc2)o1,"inconclusive: 12.6 µM [inhibitor, partial curve]",
COc1ccc(/C=N/NC(=O)c2nn(-c3ccc(C)c(C)c3)c(=O)c3ccccc23)cc1,"inconclusive: 3.98 µM [inhibitor, single point]",
COCc1cc(C)nc(SCC(=O)c2ccc(O)c(O)c2)c1C#N,"inconclusive: 3.98 µM [inhibitor, single point]",
CCN1CCN(CCCNc2ncnc3nc[nH]c23)CC1,"inconclusive: 10 µM [inhibitor, partial curve, poor fit]",
O=S1(=O)C=C(Sc2nc3ccccc3s2)c2ccccc21,"inconclusive: 31.6 µM [inhibitor, single point]",
COc1ccc(CCNC(=O)c2cc3sc(Cl)cc3n2C)cc1OC,active: 50.1 µM,
C#CCn1c(=NC(=O)c2ccco2)sc2cccc(Cl)c21,,inactive: 95.1%
COC(=O)CSc1nc(N)c(NC(=O)c2ccc(OC)c(OC)c2)c(=O)[nH]1,"inconclusive: 0.562 µM [inhibitor, full curve, poor fit]",
COC(=O)c1cccc(N(C(=O)c2cnccn2)C(C(=O)NC2CCCCC2)c2cn(C)nc2C)c1 (stereo not drawn),"inconclusive: 8.91 µM [inhibitor, single point]",
Cc1nn(-c2ccccc2)c(N)c1Sc1ccccc1[N+](=O)[O-],,inactive: -26.2%
CCOc1ccccc1C(=O)Nc1cc(Cl)ccc1O,"inconclusive: 5.01 µM [inhibitor, single point]",
S=C(NCc1ccco1)Nc1cc(-c2ccccc2)[nH]n1,active: 15.8 µM,
O=C1Cc2cc(NS(=O)(=O)c3cc(F)ccc3F)cc3c2N1CCC3,"inconclusive: 25.1 µM [inhibitor, single point]",
NNC(=O)c1cccc(S(=O)(=O)Nc2cc(Cl)ccc2Cl)c1,"inconclusive: 2 µM [inhibitor, full curve, poor fit]",
O=C(COC(=O)c1cnccn1)N=c1sccn1Cc1ccccc1Cl,"inconclusive: 35.5 µM [inhibitor, single point]",
CC(=O)Nc1ccc(-c2csc(NC(=O)Nc3ccccc3)n2)cc1,"inconclusive: 8.91 µM [inhibitor, partial curve]",
O=c1cccccc1NCc1ccccc1,,inactive: -18.5%
O=C(NCCN1CCCCCC1)C1CCN(S(=O)(=O)N2CCOCC2)CC1,"inconclusive: 8.91 µM [inhibitor, single point]",
CC(C)CN(C(=O)Cn1c(=O)cnc2ccccc21)C1CCS(=O)(=O)C1 (stereo not drawn),"inconclusive: 39.8 µM [inhibitor, single point]",
Cc1cccc(NC(=S)N/N=C2\CC(C)(C)Oc3ccc(O)cc32)c1,"inconclusive: 28.2 µM [inhibitor, partial curve]",
Cc1ccc(C)c(OCCNc2ccc([N+](=O)[O-])cn2)c1,"inconclusive: 3.55 µM [inhibitor, full curve, poor fit]",
Cc1ccc2c(CN3CCN(S(=O)(=O)c4ccccc4C(F)(F)F)CC3)cc(=O)oc2c1C,"inconclusive: 3.98 µM [inhibitor, full curve, poor fit]",

SMILES,Potency,"activity change, negative = inhibition"
CN(C)/C=C/C(=O)c1ccc([N+](=O)[O-])c(CS(=O)(=O)c2ccc(Cl)cc2)c1,"inconclusive: 39.8 µM [inhibitor, single point]",
CCN(CC)c1ccc(NC(=O)c2nc3nc(C)cc(C(F)F)n3n2)cc1,active: 3.16 µM,
Cc1ccc(CNC(=O)/C=C/c2ccccc2Cl)cc1,,inactive: -29.9%
COc1ccc(Cl)cc1N1C(=O)C2CCCN2C1c1cccc(F)c1 (stereo not drawn),,inactive: 8.36%
N#C/C(=C\c1ccc(O)c(O)c1)C(=O)Nc1cccc2ncccc12,"inconclusive: 12.6 µM [inhibitor, partial curve]",
Cc1cccc(NC(=O)c2ccccc2NC(=O)c2ccco2)c1,active: 6.31 µM,
COc1ccc(NC(=O)Nc2nnc(CC(=O)NCc3ccccc3)s2)cc1,"inconclusive: 31.6 µM [inhibitor, single point]",
COCc1ccc(C(=O)Nc2cccc(S(=O)(=O)N(C)c3ccccc3)c2)cc1,,inactive: -28.5%
CCCc1cc(C(=O)N/N=C/c2ccc(CC)s2)c2ccccc2n1,"inconclusive: 7.94 µM [inhibitor, full curve, poor fit]",
O=C1C2C3CCCC3=C3CCCC3C2C(=O)N1c1ccc(Cl)cc1 (stereo not drawn),"inconclusive: 2 µM [inhibitor, full curve, poor fit]",
O=C(NCCc1ccccc1)/C(=C\c1ccc([N+](=O)[O-])cc1)NC(=O)c1ccc(Br)cc1,"inconclusive: 39.8 µM [inhibitor, single point]",
Cc1ccc(S(=O)(=O)NC(CC(=O)NC2CCCC2)c2ccco2)cc1 (stereo not drawn),active: 0.398 µM,
COc1cc(NS(=O)(=O)c2cc(C(=O)N3CCN(C(C)=O)CC3)ccc2OC)cc(OC)c1,,inactive: -10.9%
CNC(=O)c1nnsc1S(=O)(=O)c1ccc(Cl)cc1,"inconclusive: 39.8 µM [inhibitor, single point]",
O=C(N/N=C/c1ccc(OCC(=O)N2CCCCC2)cc1)c1ccccc1O,,inactive: -38.3%
Cc1cccc(NC(=O)CCCCCN2C(=O)c3ccccc3C2=O)n1,active: 7.08 µM,
Cn1cccc1/C=C1/C(=O)NC(=S)N(Cc2ccc(F)cc2)C1=O,"inconclusive: 39.8 µM [inhibitor, single point]",
CN1C(=O)c2ccc(C(=O)NCc3ccccc3)cc2C1=O,"inconclusive: 6.31 µM [inhibitor, single point]",
C#CC(=O)N(c1ccc(OC)c(OC)c1)C(C(=O)NC1CCCC1)c1cccs1 (stereo not drawn),"inconclusive: 5.01 µM [inhibitor, partial curve, poor fit]",
O=C(COC(=O)CCN1C(=O)/C(=C\C=C\c2ccccc2)SC1=S)Nc1ccc(Br)cc1,active: 17.8 µM,
COCCOC(=O)C1=C(C)Nc2cc(=O)[nH]c(=O)n2C1c1cccc([N+](=O)[O-])c1 (stereo not drawn),"inconclusive: 31.6 µM [inhibitor, single point]",
